Values joined by “and” are separate entries in the source; they are usually repeats but may differ in a detail not shown here. Equal values may be shown once. Some of the results follow. The main result of the screen is listed elsewhere. These columns were measured beside it and carry no call. Most of these compounds were active or inconclusive in the main read-out, so they are no random draw. Potencies come from curve fits of mixed quality, noted in brackets.
Experiment: qHTS Assay for Lipid Storage Modulators (AID 1519)
Settings: Drosophila S3 cells, BODIPY lipid droplet/cell ratio, laser cytometry, cells loaded with oleic acid
In short: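 Cells seeded at 5,000 per well were treated with compounds over a concentration series and loaded with oleic acid (400 uM, as added). Lipid droplet fluorescence (488 nm excitation, 500-530 nm channel) was read by laser-scanning cytometry and normalized to 20 uM Triacsin C.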

[1] = measured here: cell count channel max response
[2] = measured here: lipid (BODIPY) channel AC50
[3] = measured here: lipid channel max response
[4] = measured here: cell number channel AC50
Tags give direction and shape of the fitted curve.

SMILES: O=C(Oc1ccccc1)N1CCC2(CC1)CN(Cc1ccncc1)C2
- max response [1]: 27.4%
- AC50 [2]: 0.02 µM [rising, full curve, poor fit]
- max response [3]: 31.1%

SMILES: N#CC(C#N)=Cc1ccc([N+](=O)[O-])c(O)c1
- max response [1]: 62.3%
- AC50 [2]: 22.4 µM [falling, partial curve, poor fit]
- max response [3]: 44.8%

SMILES: C[n+]1c2cc(N)ccc2cc2ccc(N)cc21
- max response [1]: -19.6%
- AC50 [2]: 14.1 µM [falling, single point]
- max response [3]: -51.3%

SMILES: C=C(C)C1Cc2c(ccc3c(=O)c4c(oc23)COc2cc(OC)c(OC)cc2-4)O1 (stereo not given)
- max response [1]: 22.2%
- AC50 [2]: 14.1 µM [rising, partial curve]
- max response [3]: 31.9%

SMILES: COc1ccc2c(c1O)-c1c(OC)c(OC)cc3c1[C@@H](C2)N(C)CC3
- max response [1]: 24.8%
- AC50 [2]: 39.8 µM [rising, single point]
- max response [3]: 47.2%

SMILES: CC1CCC2C(C)C(=O)OC3OC4(C)CCC1C32OO4 (stereo not given)
- max response [1]: 84.9%
- AC50 [4]: 14.1 µM [rising, partial curve, poor fit]
- max response [3]: 106%

SMILES: Cc1ccc(C(=O)c2ccc(CC(=O)O)n2C)cc1
- max response [1]: 30.4%
- AC50 [4]: 11.2 µM [rising, partial curve]
- AC50 [2]: 31.6 µM [rising, partial curve]
- max response [3]: 51.2%

SMILES: C[C@H]1CCCC=CC2C[C@H](O)C[C@@H]2[C@H](O)/C=C\C(=O)O1 (stereo not given in full)
- max response [1]: 17.7%
- AC50 [2]: 7.08 µM [rising, full curve, poor fit]
- max response [3]: 30.1%

SMILES: CN(C)C1C(=O)C(C(N)=O)=C(O)[C@@]2(O)C(=O)C3=C(O)c4c(O)cccc4[C@@](C)(O)C3[C@H](O)C12 (stereo not given in full)
- max response [1]: 5.61%
- AC50 [2]: 25.1 µM [rising, single point]
- max response [3]: 18.5%

SMILES: C=C1[C@@H](O)C2C=CC[C@H](C)C(=O)[C@@](C)(O)C=C[C@@H](OC(C)=O)[C@@]23C(=O)N[C@H](Cc2ccccc2)[C@@H]3[C@@H]1C (stereo not given in full)
- max response [1]: 17.3%
- AC50 [2]: 1.26 µM [rising, full curve, poor fit]
- max response [3]: 24.4%

SMILES: CP(=O)(O)CCCN
- max response [1]: -21.6%
- AC50 [4]: 0.141 µM [falling, full curve, poor fit]
- max response [3]: -22.6%

SMILES: OCC(O)Cc1ccc2c(c1)OCO2 (stereo not given)
- max response [1]: 17.6%
- AC50 [2]: 39.8 µM [rising, single point]
- max response [3]: 31.7%

SMILES: CNC(=O)Oc1ccc2c(c1)C1(C)CCN(C)C1N2C (stereo not given)
- max response [1]: 15.6%
- AC50 [2]: 14.1 µM [rising, single point]
- max response [3]: 17.9%

SMILES: CC(=O)Oc1ccc(Cl)c2cccnc12
- max response [1]: -9.31%
- AC50 [2]: 14.1 µM [falling, partial curve]
- max response [3]: -38.2%

SMILES: CN1CC[C@@]2(c3cccc(O)c3)Cc3nc4ccccc4cc3C[C@H]2C1
- max response [1]: 6.58%
- AC50 [4]: 0.002 µM [falling, full curve, poor fit]
- max response [3]: 7.28%

SMILES: CNc1ccc2oc(C[C@H]3O[C@]4(CC[C@H]3C)O[C@H]([C@H](C)C(=O)c3ccc[nH]3)[C@H](C)C[C@H]4C)nc2c1C(=O)O
- max response [1]: 96.3%
- AC50 [4]: 2.82 µM [rising, full curve]
- max response [3]: -83.6%

SMILES: O=C(Nc1ccccc1)N1CCCC2(CCN(C(=O)Oc3ccccc3)CC2)C1
- max response [1]: 19.8%
- AC50 [2]: 0.794 µM [rising, full curve]
- max response [3]: 29.8%

SMILES: N[C@@H](Cn1oc(=O)[nH]c1=O)C(=O)O
- max response [1]: 23.8%
- AC50 [4]: 0.0112 µM [falling, full curve, poor fit]
- max response [3]: 20.6%

SMILES: CN(CCC(N)CC(=O)NC1C=CC(n2ccc(N)nc2=O)OC1C(=O)O)C(=N)N (stereo not given)
- max response [1]: 21.1%
- AC50 [2]: 4.47 µM [rising, partial curve]
- max response [3]: 47.9%

SMILES: C[C@]12[C@H](O)CC3C(CC[C@@H]4C[C@@H](O)CC[C@]34C)[C@@]1(O)CC[C@@H]2C1=CC(=O)OC1 (stereo not given in full)
- max response [1]: 12.8%
- AC50 [4]: 3.55 µM [rising, full curve, poor fit]
- AC50 [2]: 0.251 µM [rising, full curve, poor fit]
- max response [3]: 19%

SMILES: CCCOc1ccc2[nH]cc(C3=CCNCC3)c2n1
- max response [1]: 101%
- AC50 [4]: 14.1 µM [rising, partial curve]
- AC50 [2]: 14.1 µM [rising, partial curve]
- max response [3]: 135%

SMILES: O=[N+]([O-])c1ccc(O)c([N+](=O)[O-])c1
- max response [1]: -14.6%
- AC50 [2]: 25.1 µM [falling, single point]
- max response [3]: -35.8%

SMILES: CC1(C)C(=O)[C@@H]2OC2[C@@]2(C)C1CC(O)[C@]1(C)C2CC[C@@]2(C)C(c3ccoc3)OC(=O)C3OC312 (stereo not given in full)
- max response [1]: 21.8%
- AC50 [2]: 0.355 µM [rising, full curve, poor fit]
- max response [3]: 25.6%

SMILES: CC(C)CC1C(=O)N2CCCC2C2(O)O[C@@](NC(=O)C3C=C4c5cccc6[nH]c(Br)c(c56)CC4N(C)C3)(C(C)C)C(=O)N12 (stereo not given in full)
- max response [1]: -13.9%
- AC50 [2]: 20 µM [falling, single point]
- max response [3]: -37.6%

SMILES: C/C=C1/C[C@@H](C)[C@](O)(CO)C(=O)OCC2=CCN3CC[C@@H](OC1=O)C23 (stereo not given in full)
- max response [1]: 22.9%
- AC50 [2]: 35.5 µM [rising, single point]
- max response [3]: 35%

SMILES: C=C(C)C1Cc2c(ccc3c2OC2COc4cc(OC)c(OC)cc4C2C3=O)O1 (stereo not given)
- max response [1]: -26.5%
- AC50 [4]: 0.316 µM [falling, full curve, poor fit]
- AC50 [2]: 0.282 µM [falling, full curve]
- max response [3]: -90.6%

SMILES: O=C(Cc1ccc(Cl)c(Cl)c1)N1CCCC[C@H]1CN1CCCC1
- max response [1]: 47.9%
- AC50 [4]: 31.6 µM [rising, partial curve, poor fit]
- AC50 [2]: 31.6 µM [rising, partial curve, poor fit]
- max response [3]: 67.2%

SMILES: O=C(NC(=O)c1c(F)cccc1F)Nc1ccc(Cl)cc1
- max response [1]: 12.8%
- AC50 [2]: 3.16 µM [rising, partial curve, poor fit]
- max response [3]: 25.9%

SMILES: O=C(O)c1ccccc1-c1c2cc(Br)c(=O)cc-2oc2[c]([Hg])c(O)c(Br)cc12
- max response [1]: -68.4% and -108%
- AC50 [4]: 14.1 µM [falling, partial curve, poor fit]
- AC50 [2]: 14.1 µM [falling, partial curve, poor fit]
- max response [3]: -88.5% and -108%

SMILES: O=C(Oc1ccccc1)N1CCC2(CCN(Cc3ccncc3)CC2)CC1
- max response [1]: 30.9%
- AC50 [4]: 0.562 µM [rising, partial curve, poor fit]
- AC50 [2]: 1.26 µM [rising, full curve, poor fit]
- max response [3]: 45.8%

SMILES: CS(=O)c1ccc(-c2nc(-c3ccc(F)cc3)c(-c3ccncc3)[nH]2)cc1 (stereo not given)
- max response [1]: 91.6% and 93%
- AC50 [4]: 7.08 µM [rising, partial curve] and 12.6 µM [rising, partial curve]
- AC50 [2]: 7.08 µM [rising, partial curve] and 14.1 µM [rising, partial curve]
- max response [3]: 118% and 121%

SMILES: CCC1/C=C/C=CCC(C)C(O)[C@@](C)(O)C(=O)C(C)C(O)C(C)C(=O)C(C)C(O)C(C)C=CC(=O)O[C@H]2C(C)C(CC1)O[C@]1(CCC(C)C(CC(C)O)O1)C2C (stereo not given in full)
- max response [1]: -36.4%
- AC50 [4]: 0.0112 µM [falling, full curve, poor fit]
- AC50 [2]: 0.00794 µM [falling, full curve]
- max response [3]: -102%
